# Test results reported in the supplement of paper PMC11417369.
# This is one part of the list.
# Tested on: PfSIP2 AP2 domain 1 (GST-tagged)
# Assay: gcPBM binding intensity (ln(normalized median fluorescence intensity)); higher = stronger DNA binding
# Method in brief: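 The binding buffer was 1× PBS containing 1% milk, 0.2 mg/ml BSA, 0.5% salmon testes DNA and 0.03% Triton X-100. In it, GST-tagged P. falciparum DNA-binding domains expressed in E. coli were applied for 1 h to an Agilent 4 × 180k array of primer-extended double-stranded 36-bp intergenic genomic probes plus negative controls. Binding intensity, read with Alexa488 anti-GST antibody and a 488 nm scan, is the highest Masliner-normalised natural-log median intensity across replicate spots of either probe orientation.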
row,Sequence,gcPBM binding intensity (ln)
1,AATAAAAAGAAACACACACACACACCCATATATATA [CACACA_site3589],7.31
2,ATATAAGAACAAAATTGTACATAAATATTTATATAA [XGTACX_site7404],6.99
3,AAAAAAAAGGAAAATAAAAATAAAAAAAAATAATAA [XGTACX_negctrl_site601],6.71
4,TGAGAAAAAAAGAATTGTACATATAAAATATAACAA [XGTACX_site3500],6.74
5,GAGGATCATCAATTCACACACATAAAAATGAAGTTA [CACACA_site3078],6.81
6,CAATTTTCTAATGAAACATGCAAAATAAAATTTTAT [TGCATGCA_site13],6.78
7,TTCTTTTTAATGTCGGTGCAACTCCATAAAAACAAA [GTGCAC_site9488],10.8
8,CAACGATACAAAAAAGGTACACATATATATATATAT [XGTACX_site8688],8.98
9,TATATAAAATTCTATTGTACATGTTATACGAAAGAA [XGTACX_site5711],7.58
10,CAAATACATAGACACACACACATATACATATTTATA [CACACA_site7610],7.11
11,TTTATATTTAAATGCATGCACTTTCTATTTTTTTTT [GTGCAC_site9959],8.4
12,TATTTGATAAATTATACACACACAATATATATAAAA [CACACA_site8625],6.94
13,GAATAAAGGAGAGGCACACATATATATATATATATA [CACACA_site2452],9.61
14,GACCATGTTAACAAAGCATGCATCTCTATATGTTTA [TGCATGCA_site358],6.94
15,ACATAAAATAAATATACACACATATGTATATATCAT [CACACA_site7424],7
16,AAAAAAAAAAGAAAGAGTACTTTTTCAATACATATA [XGTACX_site2468],7.12
17,TTATTTTATAAATCGAAAACAAACAAAAAAAAGATA [XGTACX_negctrl_site178],7.16
18,TTGCTGTATTTATTTTGTACACATTTGGCATTATAT [XGTACX_site3408],7.17
19,AAGAAAAACAATACGTGTACCAAGCATCCTACTAAC [XGTACX_site6628],6.88
20,TTAATATAATTAAAATGTACTTATTTGTAAACATTA [XGTACX_site6313],6.78
21,TTTGTAGCACTTAAGAGTACAAAATGTATAAGATTT [XGTACX_site2321],7.14
22,TATATATATATATATTGTACACATTGTGTTTAAATA [XGTACX_site5104],9.15

row,Sequence,gcPBM binding intensity (ln)
1,AATAGAATGTAATATACACACATATATTTCTCTTTT [CACACA_site2630],6.71
2,TTTTTATTGTTAATTTTAATTTTTTTTTTTTAATGC [CACACA_negctrl_site162],6.69
3,TTGTAACCTATGCACGCACACAAGAAAAAAACAAAA [CACACA_site3775],7.7
4,TTTCCTTATAAAAATACACACAAACTTTAATTAAAA [CACACA_site7710],6.91
5,TATTCCAAATTTACTAGTACATAATCCATCCGATAA [XGTACX_site1558],6.8
6,TTTCTTTTTAAATGCTGTACAAAGGGTGACGTTAAA [XGTACX_site4724],7.35
7,TATTACACATATTATACACACATATATTATAGATAT [CACACA_site6839],7.17
8,ATTTTTTATATTTAGTGTACATGTTTTAATTTATAA [XGTACX_site7512],7.29
9,ATAACTTTATTCAGTTTGCACTTTTATAACAAAAGA,8.39
10,CTTATATAATTCGATAGTACATATTTTTATATATAT [XGTACX_site4045],7.06
11,TTTTCTTTTTTTTTTGTGCACATAATATATAATTAT,9.91
12,ATATTTTTTAGTAAGACGAAATAAATAAATCTTTAT [CACACA_negctrl_site1778],6.79
13,TATATATATATAAGCACACAAACAAAAAAAATTATA [CACACA_site3897],8
14,TTTTTCCTATTTTTAGTGCACATATAAATAAATAAA [GTGCAC_site9821],10.7
15,ATTGAATATGTAAATGCACACCAAAAAAAAAAAAAA [CACACA_site9189],7.29
16,CGTATTTATAGAATTACACACCATATTGTAATTATT [CACACA_site7722],6.95
17,GTGTTTTTATTATTTTGTACACATATATTTAATATT [XGTACX_site2109],8.26
18,TTTTTTTTGTAATACGCATGCTAAAAATATTTATAA [TGCATGCA_site656],7.07
19,ATTTAAATAAGATATACACACAAGTAGAAGACTATG [CACACA_site806],7.06
20,TTTTCGATGTTGGTAGGAAGTTTGGTACACGTAGTA [TGCATGCA_negctrl_site145],7.14
21,AAAATTCATATATACACACACGCACATATATATATA [CACACA_site90],9.47
22,GAATGTCTAATTTTGATGCACACTTTTGTGCAATTA [CACACA_site2902],8.6

row,Sequence,gcPBM binding intensity (ln)
1,TTATATTATTCGTGTGTGCACGATATTTCATAATTG [GTGCAC_site9767],8.96
2,CAAAAAATTCAACACACACACACACCGATAAATAAA [CACACA_site8330],7.01
3,TTGTCCCTATAAGGGGAACACACATAAATGAATATA [CACACA_site8250],6.77
4,AAAACTATTTGTAAAAGTACATAATAAATAAATAAA [XGTACX_site7922],6.87
5,ATAATGTTTTATAATACACACATTATGTATATAAAT [CACACA_site4077],7.04
6,CTATTATTTTTAAATTGTACTATAACAAAATGTATA [XGTACX_site3916],7.15
7,AAATAAATCTATAATACACACAAAAATATAAAATGC [CACACA_site7700],7.23
8,TTTATATTTATATAAATATAATATATATGAATTATA [XGTACX_negctrl_site466],6.99
9,ATATATATGTTTTATAGTACACACATAAATGGACAT [XGTACX_site4538],7.32
10,TTAAGAAATAACAATGCACACATTTAGGTCTTTTAT [CACACA_site3285],6.98
11,ATAACTTGTATATATACACACACACCCTTTCTTTTT [CACACA_site8600],7.08
12,TATATTATATTATACATACACACCCATATAATATGT [CACACA_site869],7.21
13,TTAGATATGTGTAAGGGTACAAAATACTTTACATTT [XGTACX_site8204],6.87
14,CTTCAATATATTCTTACACACTTAAAAAAAAAAATA [CACACA_site4287],7.28
15,TAAGTATACGCATACACACACACACCCAAAAAAAAA [CACACA_site425],6.96
16,CATTCAATTGAAAAATGTACAAAAATAAACATATGC [XGTACX_site1663],6.98
17,TAAACATACCTATACACACACACACGCACACGCACA [CACACA_site6372],8.48
18,ATAATATATGAGCAATGTACATATTTCTCATTGCAC [XGTACX_site2253],8.12
19,TTTCTATATTGGCATACATGCAAGAACGAAAAGATT [TGCATGCA_site117],7.09
20,TAAAAATTGCACAGAAGTACAGTATAAATATATATA [XGTACX_site3421],7.39
21,GTTCCAGGCATTCGTGCGCACAAATAGAAACAATTA [GTGCAC_site9824],9.34
22,TTGTGAAACATCAAGAAAAAGAAATAATAAAAAGAA [GTGCAC_negctrl_site38],7.11

row,Sequence,gcPBM binding intensity (ln)
1,GTTGAACATATATGCACACACATAAAATAAAAAAAA [CACACA_site2413],7.35
2,TTATATTAATATATATGTACATATATTTTTTTTATA [XGTACX_site6981],6.78
3,AAAAGGTATCCACATACGCACACCAAAAAAAAAAAT [CACACA_site347],7.28
4,TCTTTTTTTTTTTTTTTTTTTTTTTATTTATTCATA [CACACA_negctrl_site1827],6.85
5,ATACAACAATGTGAATTATATATGGATGGAGAATGA [GTGCAC_negctrl_site148],7.1
6,ACGTAAGCGAATAAAAGTACATATATTAAAAAAAAA [XGTACX_site4458],6.9
7,TTCTTAAGGAACGAACGTACAGAATAAAAAGTAAAA [XGTACX_site4294],7.05
8,TTTAAAACCCTAAAAAAAAAAAAAAAAAAAAAAAAA [CACACA_negctrl_site1212],6.9
9,GTTTGTATAGGTTCATGTACAAAAAAAAAAAAAAAA [XGTACX_site537],7.07
10,ATGCATAAAAGAAATACACACATAAATATGTAAATA [CACACA_site7087],6.82
11,ATTCATATGTGACACACACACACACGCATAAAAAAA [CACACA_site7515],7.28
12,TTAAAACATATTTTGAATTAATATATTTTAATATTA [XGTACX_negctrl_site148],6.6
13,TAGCGTACATTTCATTGTAATCATAAAAAATAAAGA [CACACA_negctrl_site447],7.03
14,ACAAAAATATATATATGTACATATATCATCATAATA [XGTACX_site5850],6.95
15,TTTATTAGAACCGTACGTACATAGTTATTTTTTCAA [XGTACX_site8848],7.16
16,TATGCTATAATACTCTGTACTTACTAATTTAATAAT [XGTACX_site5926],6.92
17,TATATATATATATGGGTGCATTTTTTTGTCCATGTA [GTGCAC_site9868],10.7
18,ATAAAATAAATGAAAAATGTAAAATGAGAAAAAAAT [CACACA_negctrl_site1026],7.21
19,TACATATTTTTTATATGTACATATTTTTTATGTGTA [XGTACX_site442],7.17
20,TTTTATCTCATTCATCAAAATCACCGGAATCATATA [CACACA_negctrl_site357],7
21,TAATAAACAAATTCCAAAATAAATTAAAAGGAAAAT [CACACA_negctrl_site1404],6.61
22,AGGTATATATTACAAGTGCACTGTAAAATTAAAATT,10.7
